In patent US12583836B2 (Anaxis Pharma Pty Ltd, priority 2020, dated 2026):

What was measured:
RIP1 = target: T1, RIP1 (Homo sapiens, UniProt Q13546); assay: KINOMEscan binding assay, RIP1; settings: equilibrium dissociation constant, class symbols
T1 construct: purchased DiscoverX (KINOMEscan service); host or cells: E. coli BL21-derived (T7 phage) or HEK293
T1 sequence (Q13546 1-671): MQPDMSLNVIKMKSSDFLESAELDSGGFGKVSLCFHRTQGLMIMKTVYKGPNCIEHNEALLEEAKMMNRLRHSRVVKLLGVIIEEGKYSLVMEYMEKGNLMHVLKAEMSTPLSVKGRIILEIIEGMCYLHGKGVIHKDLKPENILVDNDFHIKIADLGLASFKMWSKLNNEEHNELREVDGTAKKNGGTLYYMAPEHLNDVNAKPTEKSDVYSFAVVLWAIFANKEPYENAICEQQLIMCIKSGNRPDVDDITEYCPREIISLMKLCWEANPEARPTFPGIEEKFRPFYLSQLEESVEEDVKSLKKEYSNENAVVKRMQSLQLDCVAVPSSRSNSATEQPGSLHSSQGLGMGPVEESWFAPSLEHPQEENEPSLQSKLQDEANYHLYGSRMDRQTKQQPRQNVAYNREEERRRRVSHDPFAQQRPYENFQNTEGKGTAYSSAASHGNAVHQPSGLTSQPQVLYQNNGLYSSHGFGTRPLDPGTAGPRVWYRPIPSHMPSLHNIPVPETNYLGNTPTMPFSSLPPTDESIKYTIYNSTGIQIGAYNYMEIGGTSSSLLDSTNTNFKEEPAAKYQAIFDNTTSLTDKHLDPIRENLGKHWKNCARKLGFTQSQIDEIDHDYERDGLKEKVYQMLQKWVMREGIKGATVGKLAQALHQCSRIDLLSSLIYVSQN

MLKL (full length) = target: T2, MLKL (full length) (Homo sapiens, UniProt Q8NB16); assay: KINOMEscan binding assay, MLKL; settings: equilibrium dissociation constant, class symbols
T2 construct: purchased DiscoverX (KINOMEscan service); host or cells: E. coli BL21-derived (T7 phage) or HEK293
T2 sequence (Q8NB16 1-471): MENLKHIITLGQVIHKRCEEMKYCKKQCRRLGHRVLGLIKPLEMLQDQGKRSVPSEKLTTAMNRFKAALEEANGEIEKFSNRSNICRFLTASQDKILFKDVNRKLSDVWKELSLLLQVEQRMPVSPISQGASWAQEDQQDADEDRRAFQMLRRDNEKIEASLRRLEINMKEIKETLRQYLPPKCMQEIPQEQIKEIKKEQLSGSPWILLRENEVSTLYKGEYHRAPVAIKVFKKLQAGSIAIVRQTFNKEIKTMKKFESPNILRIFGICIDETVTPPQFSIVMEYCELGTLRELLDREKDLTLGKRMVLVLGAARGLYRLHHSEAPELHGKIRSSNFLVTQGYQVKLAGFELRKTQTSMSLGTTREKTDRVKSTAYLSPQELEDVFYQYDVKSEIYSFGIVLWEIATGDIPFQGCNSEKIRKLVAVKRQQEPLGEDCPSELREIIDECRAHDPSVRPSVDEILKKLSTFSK
Excerpt: The Hill Slope was set to −1.

| SMILES | Kd (RIP1) [nM] | Kd (MLKL (full length)) [nM] |
| --- | --- | --- |
| CCS(=O)(=O)Nc1ccc(-c2n[nH]c(Nc3cccc(OCCOC)n3)c2C(N)=O)cc1OCc1ccc(F)cc1 [Compound 174, 3-(4-(ethylsulfonamido)-3-((4-fluorobenzyl)oxy)phenyl)-5-((6-(2-methoxyethoxy)pyridine-2-yl)amino)-1H-pyrazole-4-carboxamide] | > 30000 | 10 to 1000 |
| NC(=O)c1c(-c2ccc(NS(=O)(=O)c3cccc(C(F)(F)F)c3)cc2)n[nH]c1Nc1cnccn1 [Compound 73, 5-(pyrazin-2-ylamino)-3-(4-((3-(trifluoromethyl)phenyl)sulfonamido)phenyl)-1H-pyrazole-4-carboxamide] | > 30000 | 10 to 1000 |
| CCS(=O)(=O)Nc1ccc(-c2n[nH]c(Nc3cccc(C(F)(F)F)n3)c2C(N)=O)cc1OCc1ccc(F)cc1 [Compound 8, 3-(4-(ethylsulfonamido)-3-((4-fluorobenzyl)oxy)phenyl)-5-((6-(trifluoromethyl)pyridin-2-yl)amino)-1H-pyrazole-4-carboxamide] | > 30000 | 10 to 1000 |
| CCS(=O)(=O)Nc1ccc(-c2n[nH]c(Nc3cccc(C(F)(F)F)n3)c2C(N)=O)cc1OCc1ccccc1 [Compound 46, 3-(3-(benzyloxy)-4-(ethylsulfonamido)phenyl)-5-((6-(trifluoromethyl)pyridin-2-yl)amino)-1H-pyrazole-4-carboxamide] | > 30000 | 10 to 1000 |
| CCS(=O)(=O)Nc1ccc(-c2n[nH]c(Nc3cnccn3)c2C(N)=O)cc1Oc1ccc(Cl)cc1 [Compound 185, 3-(3-(4-chlorophenoxy)-4-(ethylsulfonamido)phenyl)-5-(pyrazin-2-ylamino)-1H-pyrazole-4-carboxamide] | > 30000 | < 10 |
| CCS(=O)(=O)Nc1ccc(-c2n[nH]c(Nc3cncc(C(F)(F)F)n3)c2C(N)=O)cc1 [Compound 44, 3-(4-(ethylsulfonamido)phenyl)-5-((6-(trifluoromethyl)pyrazin-2-yl)amino)-1H-pyrazole-4-carboxamide] | > 30000 | 10 to 1000 |
| NC(=O)c1c(-c2ccc(NS(=O)(=O)CC(F)(F)F)c(Oc3cccc(F)c3)c2)n[nH]c1Nc1cnccn1 [Compound 167, 3-(3-(3-fluorophenoxy)-4-((2,2,2-trifluoroethyl)sulfonamido)phenyl)-5-(pyrazin-2-ylamino)-1H-pyrazole-4-carboxamide] | > 30000 | < 10 |
| CCS(=O)(=O)Nc1ccc(-c2n[nH]c(Nc3cnccn3)c2C(N)=O)cc1OCc1c(C)cc(F)cc1C [Compound 142, 3-(4-(ethylsulfonamido)-3-((4-fluoro-2,6-dimethylbenzyl)oxy)phenyl)-5-(pyrazin-2-ylamino)-1H-pyrazole-4-carboxamide] | 1000 to 30000 | 1000 to 30000 |
| COCCOc1cc(Nc2[nH]nc(-c3ccc(NS(=O)(=O)C(F)(F)F)cc3)c2C(N)=O)ccn1 [Compound 114, 5-((2-(2-methoxyethoxy)pyridin-4-yl)amino)-3-(4-((trifluoromethyl)sulfonamido)phenyl)-1H-pyrazole-4-carboxamide] | > 30000 | < 10 |
| COCCOc1cc(Nc2[nH]nc(-c3ccc(NS(=O)(=O)N(C)C)cc3)c2C(N)=O)ccn1 [Compound 221, 3-(4-((N,N-dimethylsulfamoyl)amino)phenyl)-5-((2-(2-methoxyethoxy)pyridin-4-yl)amino)-1H-pyrazole-4-carboxamide] | > 30000 | < 10 |
| NC(=O)c1c(-c2ccc(NS(=O)(=O)Cc3ccc(OC(F)(F)F)cc3)cc2)n[nH]c1Nc1ccccn1 [Compound 135, 5-(pyridin-2-ylamino)-3-(4-(((4-(trifluoromethoxy)phenyl)methyl)sulfonamido)phenyl)-1H-pyrazole-4-carboxamide] | – | 1000 to 30000 |
| CCOc1nccc(Nc2[nH]nc(-c3ccc(NS(=O)(=O)CC)cc3)c2C(N)=O)n1 [Compound 98, 5-((2-ethoxypyrimidin-4-yl)amino)-3-(4-(ethylsulfonamido)phenyl)-1H-pyrazole-4-carboxamide] | – | < 10 |
| CCS(=O)(=O)Nc1ccc(-c2n[nH]c(Nc3cnccn3)c2C(N)=O)cc1OC1CCCc2cc(F)ccc21 (stereo not drawn) [Compound 224, 3-{4-ethanesulfonamido-3-[(6-fluoro-1,2,3,4-tetrahydronaphthalen-1-yl)oxy]phenyl}-5-[(pyrazin-2-yl)amino]-1H-pyrazole-4-carboxamide] | – | < 10 |
| NC(=O)c1c(-c2ccc(NS(=O)(=O)Cc3ccccc3)cc2)n[nH]c1Nc1ccccn1 [Compound 136, 3-(4-(phenylmethylsulfonamido)phenyl)-5-(pyridin-2-ylamino)-1H-pyrazole-4-carboxamide] | – | 1000 to 30000 |
| CC[C@H](Oc1cc(-c2n[nH]c(Nc3cnccn3)c2C(N)=O)ccc1NS(=O)(=O)CC(F)(F)F)c1ccc(F)cc1 (single isomer, unassigned) [Compound 250] | – | 10 to 1000 |
| NC(=O)c1c(-c2ccc(NS(=O)(=O)Cc3ccc(Cl)cc3)cc2)n[nH]c1Nc1cccc(C(F)(F)F)n1 [Compound 60, 3-(4-(((4-chlorophenyl)methyl)sulfonamido)phenyl)-5-((6-(trifluoromethyl)pyridin-2-yl)amino)-1H-pyrazole-4-carboxamide] | – | 10 to 1000 |
| CCS(=O)(=O)Nc1ccc(-c2n[nH]c(Nc3cnccn3)c2C(N)=O)cc1OCc1ccccn1 [Compound 261, 3-{4-ethanesulfonamido-3-[(pyridin-2-yl)methoxy]phenyl}-5-[(pyrazin-2-yl)amino]-1H-pyrazole-4-carboxamide] | – | < 10 |

Results, then the compound that gave them:

| Kd (RIP1) [nM] | Kd (MLKL (full length)) [nM] | SMILES |
| --- | --- | --- |
| > 30000 | < 10 | Cc1cnc(Nc2[nH]nc(-c3ccc(NS(=O)(=O)CCC(F)(F)F)c(OCc4ccc(F)cc4)c3)c2C(N)=O)cn1 [Compound 183, 3-(3-((4-fluorobenzyl)oxy)-4-((3,3,3-trifluoropropyl)sulfonamido)phenyl)-5-((5-methylpyrazin-2-yl)amino)-1H-pyrazole-4-carboxamide] |
| 1000 to 30000 | < 10 | CCS(=O)(=O)Nc1ccc(-c2n[nH]c(Nc3ccccn3)c2C(N)=O)cc1OCc1cccc(Cl)c1 [Compound 38, 3-(3-((3-chlorobenzyl)oxy)-4-(ethylsulfonamido)phenyl)-5-(pyridin-2-ylamino)-1H-pyrazole-4-carboxamide] |
| > 30000 | < 10 | CCS(=O)(=O)Nc1ccc(-c2n[nH]c(Nc3cncc(OC)n3)c2C(N)=O)cc1 [Compound 99, 3-(4-(ethylsulfonamido)phenyl)-5-((6-methoxypyrazin-2-yl)amino)-1H-pyrazole-4-carboxamide] |
| > 30000 | < 10 | CCS(=O)(=O)Nc1ccc(-c2n[nH]c(Nc3cccc(OC(F)(F)F)n3)c2C(N)=O)cc1OCc1ccc(F)cc1 [Compound 172, 3-(4-(ethylsulfonamido)-3-((4-fluorobenzyl)oxy)phenyl)-5-((6-(trifluoromethoxy)pyridine-2-yl)amino)-1H-pyrazole-4-carboxamide] |
| > 30000 | < 10 | CCS(=O)(=O)Nc1ccc(-c2n[nH]c(Nc3cnccn3)c2C(N)=O)cc1Oc1ccc(F)cc1 [Compound 19, 3-(4-(ethylsulfonamido)-3-(4-fluorophenoxy)phenyl)-5-(pyrazin-2-ylamino)-1H-pyrazole-4-carboxamide] |
| > 30000 | < 10 | NC(=O)c1c(-c2ccc(NS(=O)(=O)CCC(F)F)cc2)n[nH]c1Nc1cnccn1 [Compound 23, 3-(4-((3,3-difluoropropyl)sulfonamido)phenyl)-5-(pyrazin-2-ylamino)-1H-pyrazole-4-carboxamide] |
| > 30000 | < 10 | CCS(=O)(=O)Nc1ccc(-c2n[nH]c(Nc3cncc(OC)n3)c2C(N)=O)cc1OCc1ccc(F)cc1 [Compound 15, 3-(4-(ethylsulfonamido)-3-((4-fluorobenzyl)oxy)phenyl) 5-((6-methoxypyrazin-2-yl)amino)-1H-pyrazole-4 carboxamide] |
| > 30000 | < 10 | CCS(=O)(=O)Nc1ccc(-c2n[nH]c(Nc3ccccn3)c2C(N)=O)cc1OCc1ccncc1 [Compound 27, 3-(4-(ethylsulfonamido)-3-(pyridin-4-ylmethoxy)phenyl)-5-(pyridin-2-ylamino)-1H-pyrazole-4-carboxamide] |
| > 30000 | < 10 | CCS(=O)(=O)Nc1ccc(-c2n[nH]c(Nc3ccc4ccccc4c3)c2C(N)=O)cc1 [Compound 86, 3-(4-(ethylsulfonamido)phenyl)-5-(naphthalen-2-ylamino)-1H-pyrazole-4-carboxamide] |
